According to publication doi:10.1101/598201 (bioRxiv, 2019):

Target: the molecule itself
Test: SEC

B1: G3BP1-1-168 wild-type (domain or fragment)
chain: not shown
stoichiometry N: 2
